Data taken from PubChem BioAssay AID902 (National Center for Advancing Translational Sciences (NCATS), 2007).
Among all 130,000 compounds or so, about 1,900 (1.5%) were called active. The shares of active, inactive and inconclusive entries below differ from those in the screen. Calls come from the whole dose curve; as a rule, active = well fitted cell-killing curve with a large enough effect; inconclusive = small, poorly fitted or top-dose-only effect; inactive = no such curve, though single readings can be large or run the other way. A potency beside an inconclusive call is a rough fit, not a confirmed value.
% is set by controls: 0 for no effect and ±100 for the full control effect; potency is the fitted concentration of half-maximal effect; tags give direction and shape of the fitted curve.

Assay: qHTS Screen for Compounds that Selectively Target Cancer Cells with p53 Mutations: Cytotoxicity of p53ts Cells at the Nonpermissive Temperature; note: nearly all actives have a fitted effect of over 55% in size
Settings: H1299-p53A138V viability at 39C, ATP luminescence, 24 h; activity change, negative = cell killing: at 46.1 µM (top of the series)
In the case of O=C(Nc1ncc(Cc2ccccc2)s1)c1cccs1, the Potency is reported as inconclusive: 12.6 µM [cytotoxic, partial curve].
In the case of O=C(CSc1nc(-c2ccc(F)cc2)[nH]c1-c1ccc(F)cc1)Nc1ccc2c(c1)OCCO2, the Potency is reported as inconclusive: 6.31 µM [cytotoxic, single point].
For O=C(O)c1cc(-c2ccc3cc4c(cc3c2)OCO4)nc2ccccc12, the Potency was active: 1.26 µM.
With Nc1c(C(=O)NCC2CCCO2)c2nc3ccccc3nc2n1-c1ccccc1 (centres undefined) the “activity change, negative = cell killing” value was inactive: -15.4%.
For CC1=NN(c2ccccc2)C(=O)[C@@H]1N=Nc1ccc(S(N)(=O)=O)cc1, the activity change, negative = cell killing was inactive: 18.5% [at 9.22 µM].
With CN(C)CCCN(C(=O)CCc1ccccc1)c1nc2ccc(Cl)cc2s1 the Potency was inconclusive: 31.6 µM [cytotoxic, single point].
For CCOc1ccc(NC(=O)c2cnsn2)cc1, the Potency was inconclusive: 15.8 µM [cytotoxic, partial curve].
In the case of NC(=O)c1c(NC(=O)c2cc3ccccc3o2)sc2c1CCC2, the Potency is reported as inconclusive: 12.6 µM [cytotoxic, partial curve].
With CCCCOc1ccc(Cn2c(=O)oc3ccc(C)cc32)cc1OC the “activity change, negative = cell killing” value was inactive: -6.89%.
In the case of COc1ccc2c(c1)c(=O)c(C(=O)c1ccc(F)cc1)cn2CC(=O)Nc1ccc2c(c1)OCO2, the Potency is reported as inconclusive: 15.8 µM [cytotoxic, single point].
For CCN(CCCNC(=O)CN(C)S(=O)(=O)c1cccc2nsnc12)c1cccc(C)c1, the “activity change, negative = cell killing” value was inactive: -7.92%.
For CCc1ccc(-n2nc(CO)c(C(=O)NCCOC)n2)cc1, the Potency was inconclusive: 31.6 µM [cytotoxic, single point].
For CCc1ccc(CNC(=O)C2COc3ccc(OC)cc3C2)cc1 (centres undefined), the Potency was inconclusive: 0.0501 µM [cytotoxic, full curve].
For CCCCn1c(CNC(=O)C23CC4CC(CC(C4)C2)C3)nnc1SCC(=O)Nc1ccc(C)cc1, the Potency was inconclusive: 10 µM [cytotoxic, partial curve].
With COc1ccc(Nc2c3c(nc4ccccc24)CCC3)cc1Cl the Potency was inconclusive: 10 µM [cytotoxic, partial curve].
With CC(=O)c1cccc(NC(=O)c2cnn3ccccc23)c1 the Potency was inconclusive: 12.6 µM [cytotoxic, partial curve].
In the case of O=C(Nc1cccnc1)c1c(F)c(F)c(F)c(F)c1F, the “activity change, negative = cell killing” value is reported as inactive: 0.269%.
With Cc1cc(C(=O)COc2cccc3cccnc23)c(C)n1C the Potency was inconclusive: 12.6 µM [cytotoxic, partial curve, poor fit].
With CCN(CC)S(=O)(=O)c1cccc(-c2nnc(SCC(=O)c3cc(C)n(C)c3C)o2)c1 the “activity change, negative = cell killing” value was inactive: -11.8%.
For Cc1ccc(C2CC(=O)Nc3cc4c(cc32)OCCO4)cc1Br (centres undefined), the Potency was inconclusive: 12.6 µM [cytotoxic, partial curve].
With COc1ccc(-c2nnc(NC(=O)c3ccc(S(=O)(=O)N4CCc5ccccc5C4)cc3)o2)cc1 the Potency was inconclusive: 2 µM [cytotoxic, full curve, poor fit].
With COc1cc(NC(=O)C2=CC(c3ccc(F)cc3)=NS(=O)(=O)N2C)cc(OC)c1OC the Potency was inconclusive: 5.01 µM [cytotoxic, full curve].
In the case of CCc1ccc(CNC(=O)CCc2c(C)nn(-c3ccc(N4CCCC4)nn3)c2C)cc1, the “activity change, negative = cell killing” value is reported as inactive: -14%.
In the case of CCN(CC)c1cc(C)c2cc(NC(=O)/C=C/c3cc(OC)c(OC)c(OC)c3)ccc2n1, the Potency is reported as inconclusive: 31.6 µM [cytotoxic, single point].
For Nc1ccc(N2CCCCCC2)cc1, the Potency was inconclusive: 25.1 µM [cytotoxic, single point].
For Cc1ccc(-n2ncc3c(Nc4cccc(Cl)c4)ncnc32)c(C)c1, the Potency was inconclusive: 15.8 µM [cytotoxic, partial curve].
In the case of CCCCN(C)S(=O)(=O)c1ccc(C(=O)Nc2nnc(-c3cccs3)o2)cc1, the Potency is reported as active: 7.94 µM.
With CNC(=O)CCc1nc(-c2ccc(C(C)(C)C)cc2)no1 the Potency was inconclusive: 12.6 µM [cytotoxic, partial curve].
For CCOc1ccc(CCNC(=O)c2cn(-c3ccc(OC)cc3)c(=O)c3ccccc23)cc1OCC, the Potency was inconclusive: 6.31 µM [cytotoxic, single point].
With COc1ccc(Br)cc1S(=O)(=O)Nc1cc(-c2cn3ccccc3n2)ccc1C the “activity change, negative = cell killing” value was inactive: -27%.
For O=C(Cn1ncc2c3ccccc3n(Cc3ccccc3F)c2c1=O)NCc1ccccc1Cl, the Potency was inconclusive: 25.1 µM [cytotoxic, partial curve].
With Cc1coc2c(C)c3oc(=O)c(CCC(=O)NCCc4ccccc4F)c(C)c3cc12 the Potency was inconclusive: 15.8 µM [cytotoxic, single point].
In the case of COc1ccc(CNC(=O)CSc2ncc3c(n2)-c2ccc(Cl)cc2N(Cc2ccccc2)S3(=O)=O)cc1, the Potency is reported as inconclusive: 20 µM [cytotoxic, partial curve, poor fit].
In the case of CCC(=O)NCCn1c(C)cc2ccccc21, the Potency is reported as inconclusive: 25.1 µM [cytotoxic, single point].
With CCOc1ccc(OCC)c(NC(=O)c2nnn(CC(=O)Nc3cc(Cl)ccc3OC)c2N)c1 the Potency was inconclusive: 10 µM [cytotoxic, partial curve].
With CCc1ccccc1NC(=O)Cn1nc(CC)n2c(cc3sccc32)c1=O the “activity change, negative = cell killing” value was inactive: 5.95%.
For CCN(Cc1ccccc1)c1ncnc2c1cnn2-c1ccc(F)cc1, the Potency was inconclusive: 15.8 µM [cytotoxic, partial curve].
For Cc1oc(C(C)(C)C)cc1C(=O)Nc1ccc(C(=O)O)cc1, the Potency was inconclusive: 2.51 µM [cytotoxic, partial curve].
For Cc1ccc2cc3cc(C(=O)N4CCCCC4C)oc3nc2c1 (centres undefined), the Potency was inconclusive: 10 µM [cytotoxic, partial curve].
In the case of CCOc1ccccc1C1C(C(=O)Nc2ccccc2)=C(C)Nc2nc(SCC(=O)c3ccc(C)cc3)nn21 (centres undefined), the Potency is reported as inconclusive: 20 µM [cytotoxic, single point].
With Cc1onc(-c2ccccc2Cl)c1C(=O)OCn1nnc2ccccc2c1=O the “activity change, negative = cell killing” value was inactive: -6.72%.
With c1ccc(-c2cccc(N3CCC4(CCNCC4)CC3)c2)cc1 the Potency was active: 15.8 µM.
For COc1ccc2c(=O)c3c(=O)n(Cc4ccco4)c(-c4ccccc4)nc3oc2c1, the “activity change, negative = cell killing” value was inactive: -2.88%.
With Cc1ccccc1CCNC(=O)c1ccc(Cn2c(=O)c3cccn3c3cccnc32)cc1 the Potency was inconclusive: 10 µM [cytotoxic, partial curve, poor fit].
In the case of CCCCCn1c(CCCNC(=O)c2ccc(Cl)cc2)nc2ccccc21, the Potency is reported as inconclusive: 20 µM [cytotoxic, single point].
In the case of O=C(/C=C\Nc1ccccn1)c1ccc(Cl)cc1, the Potency is reported as active: 12.6 µM.
For COc1ccccc1C(=O)NCc1nc2cccnc2n1Cc1ccc(F)cc1, the “activity change, negative = cell killing” value was inactive: -18.7%.
With CCc1c(C)c2ccc(O)c(CN3CCN(c4ccc(F)cc4)CC3)c2oc1=O the “activity change, negative = cell killing” value was inactive: -14.6%.
For Cn1c(/C(C#N)=C/c2ccccc2Br)nc2ccccc21, the Potency was inconclusive: 6.31 µM [cytotoxic, partial curve].
In the case of OC1CCN(c2c3c(nc4cc(-c5cccc(F)c5)nn24)CCCC3)CC1, the Potency is reported as inconclusive: 31.6 µM [cytotoxic, single point].
For CCc1nnc(SCC(=O)NC2CCCCC2)nc1CC, the “activity change, negative = cell killing” value was inactive: -2.71%.
For COC(=O)[C@@]1(Cc2ccc(OC)cc2)[C@H]2c3cc(C(=O)N4CCCC4)n(Cc4cc(F)c(F)c(F)c4)c3C[C@H]2CN1C(=O)c1ccccc1, the “activity change, negative = cell killing” value was inactive: 30.6%.
In the case of Cc1ccc(-n2ncc3c(N4CCN(C)CC4)ncnc32)cc1Cl, the Potency is reported as inconclusive: 15.8 µM [cytotoxic, partial curve].
In the case of CCc1cccc(NC(=O)CSc2ncccc2C(=O)Oc2ccccc2Cl)c1, the Potency is reported as inconclusive: 1 µM [cytotoxic, full curve, poor fit].
In the case of CC(C)n1c(SCC(=O)Nc2ccc(F)cc2)nc2c(oc3ccccc32)c1=O, the Potency is reported as inconclusive: 6.31 µM [cytotoxic, single point].
With O=C(c1cc(-c2cccc(O)c2)on1)N1CCCCC1 the Potency was inconclusive: 15.8 µM [cytotoxic, partial curve].
For Cc1cc(-n2[nH]c(C)c(C)c2=O)nc(-c2ccccc2O)n1, the Potency was inconclusive: 12.6 µM [cytotoxic, single point].
For CC(=O)Nc1cc(-c2nc3ccccc3s2)ccc1C, the Potency was inconclusive: 10 µM [cytotoxic, partial curve].
For CC(C)OCCCNc1ncnc2c1[nH]c1ccccc12, the Potency was inconclusive: 12.6 µM [cytotoxic, single point].
With COc1cccc(-c2ccc3ncnc(N(C)Cc4ccco4)c3c2)c1 the Potency was inconclusive: 31.6 µM [cytotoxic, single point].
With COc1cccc(Cn2c(=O)cnc3cnc(Nc4ccccc4)nc32)c1 the Potency was inconclusive: 31.6 µM [cytotoxic, single point].
With CCCCNC(=O)CSc1nnc(C)c2c(C)n(-c3ccccc3)nc12 the Potency was active: 15.8 µM.
In the case of O=C(NCCN1CCOCC1)c1cc2ccccc2o1, the “activity change, negative = cell killing” value is reported as inactive: -2.24%.
In the case of CN1/C(=C/C(=O)c2nc(S(C)(=O)=O)ncc2Cl)C(C)(C)c2ccccc21, the Potency is reported as inconclusive: 25.1 µM [cytotoxic, single point].
For Cc1nnc(SCCn2c(N3CCCC(C)C3)nc3c2c(=O)n(C)c(=O)n3C)s1 (centres undefined), the Potency was active: 6.31 µM.
With CC(C)Sc1ncc(Cl)c(C(=O)Nc2ccc(S(=O)(=O)N(C)c3ccccc3)cc2)n1 the “activity change, negative = cell killing” value was inactive: -23.6%.
In the case of Cc1ccc(C)c(CS(=O)(=O)c2cn(CC(=O)N(C(C)C)C(C)C)c3ccccc23)c1, the “activity change, negative = cell killing” value is reported as inactive: -26.3%.
With O=C(Nc1c(C(=O)Nc2ccccc2F)oc2ccccc12)c1cc2ccccc2o1 the Potency was inconclusive: 12.6 µM [cytotoxic, single point].
For CCOc1ccc(NC(=O)c2cc(=O)c3ccc(C)c(C)c3o2)cc1, the Potency was inconclusive: 6.31 µM [cytotoxic, partial curve].
